Results on 20 variants are retold here after the RNAGym collection of RNA variant scans (doi:10.7554/elife.90254).

The source gives no read counts; variants with many changes may rest on few reads.

B1: LINE1-full (parent)
chain: UACGUAGGUGGUUUUCCCCUGAUAGUGCUAAGGGGGCCUGGAAGUUUGGACUGGGCAGAGCUCAACACAGCGUGGCAAAGUGGCUGUGGCUAGACUGCCUCUCUGGAUUCCUCGUCACUCAGCAGGGCAUCUCUGAGAGAAAUGCC

The variants in the data set derive from B1. Nature of the data set: self-cleavage, relative activity (ratio to wild type); higher = more cleavage; in vitro, sequencing; the parent is a self-cleaving ribozyme.
As for UACGUAGGUGGGUUUCCCCUGAUAGUGCUAAGGGGGCCUGGAAGUUUGGACUGGGCAGAGCUCAACACAGCGUGGCAGAGUGGCUGUGGCUAGACUGCCUCUCUGGAUUCCUCGCCACACAGCAGGGCAUCUCUGAGAGAAAUGCC [U12G A78G U115C U119A], the self-cleavage stood at 2.7.

On to UACGUAGGUGGGUUCCCCCUGAUAGUGCUAAGGGGGCCUGGAAGUUUGGACUGGGCAGAGCUCAACACUGCGUGGCAAAGUGGCUGUGGCUAGACUGCCUCUCUGGAUUCCUCGUCACUCAGCAGGGCAUCUCUGAGAGAAAUGCC [U12G U15C A69U], for which the self-cleavage came out at 0.18.

As for UACGUAGGUGGGUUUCCCCUGAUAGUGCUAAGGGGGCUUGGAAGUUUGGACUGGGCAGAGCUCAACACAGCGUGGCAAAGUGGCUGUGGCUAGACUGCCUCUCUGGAUUCCUCGUCACUCAGCAGGGCAUCUCCGAGAGAAAUGCC [U12G C38U U134C], the self-cleavage worked out at 1.05.

As to UACGUAGGUGGGUUUCCCCUGAUAGUGCUAAGGGGGCCUGGAAGUUUGGACUGGGCAGAGCUCAACACAGCGUGGCAAAGUGGCUGUGGCUAGACUGCCUCUCUGGAUUCCUCGUCACUCGGCAGGGCAUCUCGGAGAGAGAUGCC [U12G A121G U134G A141G], the self-cleavage was found to be 1.47.

Turning to UACGUAGGUGGGUUUCCCCUGAUAGUGCUAAGGGGGCCUGGAAGUUUGGACUGGGCAGAGCUCAACACAGAGUGGCAAAGUGGCUGUGGCUAGGCUGCCUCUCUGGAUUCCUCGUCACUCAGCAGGGCAUCUCUGAGAGAAAUGCC [U12G C71A A94G], the self-cleavage was 0.12.

For the variant UACGUAGGUGGGUUUCCCCUGAUAGUGCUAAGGGGGCCUGGAAGUUUGGACUGGGCAGAGCUCAACACAGCGUGGCAAUGCGGCUGUGGCUAGACUGCCUCUCUGGAGUCCUCGUCACUCAGCAGGGCAUCUCUGGGAGAAAUGCC [U12G A79U U81C U108G A136G], the self-cleavage stood at 0.

On to UACGUAGGUGGGUUUCCCCUGAUAGUGCUAAGGGGGCCUGGAAGUUUGGACUGGGCUGAGCUCGACACAGCGUGGCAAAGUGGCUGUGGCUAGACUGCCUCUCUGGAUUCCUCGUCACUCAGCAGGGCAUCUCUGAGAGAAGUGCC [U12G A57U A64G A142G], for which the self-cleavage turned out to be 0.34.

For UACGUAGGUGGGUAUCCCCUGAUAGUGCUAAGGGGGCCUGGAAGUUCGGACUGGGCAGAGCUCAACACUGCGUGGCAAAGUGGCUGUGGCUAGACUGCCCCUCUGGAUUCCUCGUCACUCAGCAGGGCAUCUCUGAGAGAAAUGCC [U12G U14A U47C A69U U100C], the self-cleavage came out at 0.65.

For the variant UACGUAGGUGGGUUUCCCCUGAUAGUGCUAAGGGGGCCUGGAAGUUUGGACUGGGCAGAGCUCAACGCAGCGUGGUAAAGUGGCUGUGGCUAGACUGCCUCUCUGGAUUCCUCGUCACUCGGCAGGGCAUCUCUGUGAGAAAUGCC [U12G A67G C76U A121G A136U], the self-cleavage came out at 1.4.

For the variant UACGUAGGUGGGUUUCCCCUGAUAGUGCUAAGGGGGCCUGGAAGUUUGGACUGGGCAGAGCUCGACACAGCGUGGCAAAGUGGCUGUGGCUAGACUGCCUCUCUGGAUUCUUCGUCACUCAGCAGGGCAUCUCUGAGAGAAAUGCC [U12G A64G C111U], the self-cleavage came to 0.39.

For the variant UACGUAGGUGGGUUUCCCCUGAUAGUGCUAAGGGGGCCUGGAAGUUUGGACUAGGCAGAGCUCAACACAGCGUGGCAAAGUGGCUGUGGCUAGACUGCCUCUCUGGAUUCCUCGUCACUCAGCGGGGCAUCUCAGAGAGAAAUGCC [U12G G53A A124G U134A], the self-cleavage stood at 0.75.

Take UACGUAGGUGGGUCUCCCCUGAUAGUGCUAAGGGGGCCUGGAAGUUUGGGCUGGGCAGAGCUCAACACAGCGUGGCAAAGUGGCUGUGGCUAGACUUCCUCUCUGGAUUCCUCGUCACUCAGCAGGGCAUCUCUGAGAGAAAUGCC [U12G U14C A50G G97U]: the self-cleavage was 0.27.

UACGUAGGUGGGUUUCCCCUGAUAGUGCUAAGGGGGCCUGGAAGUUUGGACUGGGCAGAGCUCAACACAGAGUGGCAGAGUGGCUGUGGCUAGACUGCCUCUCUGGAUUCCUCGUCACUCGGCAGGGCAUCUCUGAGAGAAAUGCC [U12G C71A A78G A121G]: the self-cleavage worked out at 0.39.

For UACGUAGGUGGGUUUCCUCUGAUAGUGCUAAGGGGGCCUGGAAGUUUGGACUGGGCGGAGCUCAACACAGCGUGGCAAAGUGGCAGUGGCUAGACUGCCUCUCUGGAUUCCUCGUCACUCAGCAGGGCAUCUCUGAGAGAAAUGCC [U12G C18U A57G U85A], the self-cleavage came out at 0.19.

As to UACGUAGGUGGGUUUCCCCUGAUAGUGCUAAGGGGGCCUGGAAGUUUGGACUGGGCAGAGCUCAACACUGCGUGGCAAUGUGGCUGUGGCUAGACUGCCUCUCUGGAUUCCUCGUCACUCAGCAGGGCAUCUCUGUGAGAAAUGCC [U12G A69U A79U A136U], the self-cleavage is 0.19.

With UACGUAGGUGGGUCUCCCCUGAUAGUGCUAAGGGGGCCUGGAGGUUUGGACUGGGCAGAGCUCAACACAGCGUGGCAAGGUAGCUGUGGCUAGACUGCCUCUCUGGGUUCCUCGUCACUCAGCAGGGCAUCUCUGAGAGAAAUGCC [U12G U14C A43G A79G G82A A107G], the self-cleavage was 0.37.

As to UACGUAGGUGGGUUUCCCCAGAUAGUGCUAAGGGGGCCUGGGAGUUUGGACUGGGCAGAGCUCAACACGGCGUGGCAAAGUGGCUGUGGCUAGACUGCCUCUCUGGAUUCCUCGUCACUCAGCAGGGCAUCUCUGAGAGAAAUGCC [U12G U20A A42G A69G], the self-cleavage came to 0.93.

For UACGUAGGUGGGUUUCCCAUGAUAGUGCUAAGGGGGCCUGGAAGUUUGGACUGGGCAGAUCUCAACACAGCGUGGCAAAGUGGCUGUGGCUAGACUGCCUCUCUGGAUUCCUAGUCACUCAGCAGGGCAUCUCUGAGAGAAAUGCC [U12G C19A G60U C113A], the self-cleavage stood at 0.13.

For UACGUAGGUGGGUUUCCCCUGAUAGUGCUAAGGGGGCCUGGAAGUUUGGACUGGGCAGAGCUCAACACAGCGUGGCAAAGUGGCUGUGGCUAGACUGCCUCUCUGGAUUCCUCGUCACUCUGCAGGGCAUCCCUGGGAGAAAUGCC [U12G A121U U132C A136G], the self-cleavage was 1.61.

With UACGUAGGUGGGUUACCCCUGAUAGUGCUAAGGGGGCCUGGAAGCUUGGACUGGGCAGAGCACAACACAGCGUGGCAAAGUGGCUGUGGCUAGACUGCCUCUCUGGAUUCCUCGUCACUCAGCAGGGCAUCUCUGAGAGAAAUGCC [U12G U15A U45C U62A], the self-cleavage is 0.
